This is an account of results in ChEMBL document CHEMBL4888484, “Replenishing the malaria drug discovery pipeline: Screening and hit evaluation of the MMV Hit Generation Library 1 (HGL1) against asexual blood stage Plasmodium falciparum ,using a nano luciferase reporter read-out” (2022).

The structures appear in SMILES notation. In all, about 150,000 compounds went through this assay and about 540 (0.36%) showed an effect of 50% or more. Some of the results follow.

For this assay, the system named is Plasmodium falciparum. Description: Primary screen in NF54 nanoGlo assay, in single point, at 2uM, 72h; a lower Z score goes with more inhibition. The settings on record: timepoint 72 hour. In kind it is functional, Erythrocyte.
A word on the % Inhibition: it is the relative decrease from the control value, in per cent. As to `O=C(c1cn[nH]c1)N1CC[C@@](O)(c2ccccc2)C1`, the “% Inhibition” value was -5% and the Z score was determined as 0.85.
With `CC1CCCN(C(=O)C2CCN(C)CC2)C1CN` (stereo unspecified), the “% Inhibition” value was -6% and the Z score is recorded as 0.69.
Taken in the same sequence, the figures for `O[C@H](CN1CCOCC1)Cn1c2c(c3cccc(Cl)c31)CCCC2` were -10% and 1.32.
For the compound `COCc1ccccc1S(=O)(=O)Nc1cc(N(C)C)ccc1C#N`, the “% Inhibition” value was -8% and the Z score was 1.53.
For `c1ccc(-c2cc(NC3C4CCCCC43)n3ncnc3n2)cc1` (stereo unspecified), the “% Inhibition” value is -13% and the Z score was 1.45.
Turning to `CCC1CN(Cc2ncc(C)o2)C(CC)CN1Cc1ncc(C)o1` (stereo unspecified), the “% Inhibition” value was -7% and the Z score was 0.61.
As to `Cc1ccn2cc(C(=O)N(CCN3CCOCC3)Cc3ccco3)nc2c1`, the “% Inhibition” value is -4% and the Z score is reported as 0.83.
Taken in the same sequence, the figures for `CC1(C)CCCC[C@@H]1NC(=O)Cc1ccnc(O)c1Br` were 0% and -0.04.
Consider `Cc1c([C@H](C)NC(=O)N2CCC(C(N)=O)CC2)sc2ccccc12`, for which the “% Inhibition” value is given as -3% and the Z score was 0.42.
As to `Cc1nc(O)[nH]c(=O)c1S(=O)(=O)N1CCN(Cc2ccccc2)CC1`, the “% Inhibition” value is given as -1% and the Z score was determined as 0.13.
Taken in the same sequence, the figures for `CCCc1cc(NC(=O)N[C@@H]2c3ccccc3OC[C@@H]2CO)n(C)n1` were -5% and 0.85.
As for `N#CC1CCC(NC2CCCC23CCOCC3)C1` (stereo unspecified), the “% Inhibition” value is reported as 6% and the Z score is given as -0.7.
Consider `O=C1C[C@@H](C(=O)Nc2ccc(OC(F)(F)F)cc2)n2cnnc2N1`, for which the “% Inhibition” value stood at 16% and the Z score is -2.01.
For `COc1ccc(Cc2nnc(C(=O)NCc3ccc4c(c3)OCO4)o2)cc1OC`, in that order: 4% and -0.59.
For `CC1c2ccccc2OC1C(=O)N1CCN2C(=O)NC(=O)C2C1` (stereo unspecified), in that order: -5% and 0.55.
On to `COc1ccc(-c2n[nH]c(C3CCCCC3)n2)c(OC)c1`, for which the “% Inhibition” value is -6% and the Z score came to 0.77.
For `CCn1ncc(C(=O)N2CCCC3c4nc[nH]c4CCC32)c1C` (stereo unspecified), in that order: -4% and 0.73.
On to `CN1CCC(NC(=O)NC2CCCCC2Oc2ccccc2)C1=O` (stereo unspecified), for which the “% Inhibition” value worked out at 11% and the Z score is given as -1.37.
Turning to `COc1ccc(OC)c(N2CCN(C(=O)Nc3ccc(C)cc3)[C@@H](C)C2=O)c1`, the “% Inhibition” value is listed as -4% and the Z score is recorded as 0.5.
`Cc1n[nH]c(=O)c2c1cnn2-c1ccccc1`: the “% Inhibition” value is recorded as 21% and the Z score is listed as -2.61.
Turning to `O=C1CCC2(CCN(Cc3cncnc3)CC2)CN1[C@H]1CC[C@H](O)CC1`, the “% Inhibition” value is -5% and the Z score is on record as 1.03.
Turning to `CCn1nccc1C(=O)NCCc1noc(-c2cccnc2)n1`, the “% Inhibition” value is recorded as 4% and the Z score is given as -0.48.
`Cc1ccc(-c2nc(-c3ccc(-c4noc(C5CCC5)n4)cc3)cs2)s1`: the “% Inhibition” value was -23% and the Z score is given as 2.28.
For `CN(C)C[C@H]1C[C@H](CO)CN(C(=O)c2ccccc2C(F)(F)F)C1`, the “% Inhibition” value is listed as -2% and the Z score came out at 0.31.
For `NC(=O)c1ccccc1NC(=O)CN1CCO[C@H]2COCC[C@H]21`, the “% Inhibition” value was 1% and the Z score is listed as -0.18.
For `CCc1ccc(C2CC(C)CCN2C(=O)Cn2cnnn2)o1` (stereo unspecified), the “% Inhibition” value was -11% and the Z score came to 2.17.
As to `CCCCn1cc(C(=O)NCC(C)(C)c2ccccn2)c(C)n1`, the “% Inhibition” value was -6% and the Z score was found to be 0.8.
Take `O=C(CN1CCN(S(=O)(=O)c2ccc(Br)cc2)CC1)Nc1ccc2c(c1)OCO2`: the “% Inhibition” value is reported as 10% and the Z score was -1.19.
For the compound `CC(C)(C)OC(=O)c1cccc(CN)c1`, the “% Inhibition” value amounted to 7% and the Z score was -0.85.
For the compound `CS(=O)(=O)N(CCCN1CCOCC1)[C@H]1CCN(C(=O)c2cc(Cl)ccc2F)C1`, the “% Inhibition” value is given as 5% and the Z score is given as -0.91.
Turning to `C[C@H](O)c1ccc(CCNS(=O)(=O)C2CC2)s1`, the “% Inhibition” value is recorded as 6% and the Z score was -0.89.
For the compound `Cn1cccc1C(=O)N1CC(C)(CC(F)F)C1`, the “% Inhibition” value was found to be 1% and the Z score is listed as -0.11.
For the compound `CN1CC[C@H](Cn2ccnc2-c2ccc(-c3ccccc3C#N)o2)C1`, the “% Inhibition” value is -22% and the Z score was found to be 2.55.
As for `Cc1cccc2ncc(C(=O)N[C@H](c3cnn(C)c3)C(C)C)n12`, the “% Inhibition” value is given as -4% and the Z score turned out to be 0.56.
Take `Cc1cc(Cc2nc([C@H](C)n3cc(Br)cn3)no2)no1`: the “% Inhibition” value is recorded as -5% and the Z score is given as 0.6.
`Cn1cc(S(=O)(=O)NC[C@]2(O)CCCc3occc32)cn1`: the “% Inhibition” value is given as -8% and the Z score was 1.14.
For `CCS(=O)(=O)NCCCNS(=O)(=O)c1ccc(C#N)cc1`, in that order: -5% and 0.41.
Regarding `Cc1ccc(C)c(Cn2ccnc2CN(Cc2ccco2)C(=O)c2ccc(Cl)cc2)c1`, the “% Inhibition” value is -7% and the Z score is on record as 0.84.
In the case of `COCCn1cc(S(=O)(=O)Nc2cccnc2Nc2ccccc2)cn1`, the “% Inhibition” value is recorded as -18% and the Z score came to 2.42.
For the compound `Cc1cccc(NC(=O)CN2N=C(c3nc(-c4ccncc4)no3)CCC2=O)c1`, the “% Inhibition” value stood at 4% and the Z score is given as -0.81.
Turning to `CC(C)NC(=O)[C@@H]1CCN(S(C)(=O)=O)c2ccccc2O1`, the “% Inhibition” value is recorded as -1% and the Z score amounted to 0.17.
For `COc1cccc(CN2CCNC(=O)[C@@H]2CC(=O)NCCOc2cccnc2)c1OC`, the “% Inhibition” value is listed as -9% and the Z score is 1.13.
On to `CC(C)CNC(=O)N1CCCCC[C@H]1c1ccccc1Cl`, for which the “% Inhibition” value was -1% and the Z score is recorded as 0.23.
